# Experimental data: ChEMBL document CHEMBL4888484, “Replenishing the malaria drug discovery pipeline: Screening and hit evaluation of the MMV Hit Generation Library 1 (HGL1) against asexual blood stage Plasmodium falciparum ,using a nano luciferase reporter read-out” (2022)
# Among all 150,000 compounds or so, about 540 (0.36%) showed an effect of 50% or more. The list shows a part of the results.
# Test system: Plasmodium falciparum
# Experiment: Primary screen in NF54 nanoGlo assay, in single point, at 2uM, 72h; a lower Z score goes with more inhibition
# Format: functional, Erythrocyte
# Conditions: timepoint 72 hour
Structure (SMILES),% Inhibition [%],Z score
Cc1nn(CC(F)F)cc1C(=O)Nc1ccc2c(c1)NC(=O)C2,-1,0.14
Cc1n[nH]c(C)c1[C@H](C)N(C)C(=O)c1csc2nc(-c3ccccc3)cn12,-13,1.16
Cc1cnn(CCNC(=O)c2cn(C)c(C)cc2=O)c1,-7,1.09
CC(C)[C@@](C)(C#N)NC(=O)CN(C)C1CCCCC1,0,-0.05
Cc1cc(COCCc2c[nH]nn2)on1,-11,1.13
Cc1ncc(Cl)c(C(=O)N2C[C@H](C)[C@@](O)(C3CC3)C2)n1,-11,1.97
Cc1ccc(C(=O)N2CCN(c3nc(-c4ccco4)nc4ccc(C)cc34)CC2)cc1,-1,0.07
O=C(CCN1CCCCO1)N[C@H]1CCOC[C@@H]1Oc1ccccn1,-8,1.26
COc1nccnc1O[C@H]1CCN(C(=O)c2ccc3ncsc3c2)C1,-16,1.81
CN(CCc1ccccc1)Cc1cc(C(=O)NCCO)no1,-11,1.63
COc1ccc(-n2nc(C)c(CCC(=O)N3CCOCC3)c2Oc2ccc(F)cc2)cc1,5,-0.49
CCn1nc([C@H]2CCOC2)nc1-c1n[nH]c2c1CN(C)CC2,-9,1.85
COc1ccc(CNC(=O)N2C3CCC2CC(=C2CC2)C3)cc1OC,8,-1.06
O=C(CCc1ccc(-c2ccc(Cl)cc2)[nH]1)NCc1cnn2cccnc12,-28,2.49
COc1ccc(CC[C@H](C)NC(=O)CCNc2ncccn2)cc1,4,-0.49
O=C(NCCCOCC(F)(F)F)N[C@H]1CCCC12CCOCC2,-1,0.13
Cc1ccc(Nc2scnc2C(=O)O)cc1,-5,0.68
CCCC(=O)N(CC1CCN(C2Cc3ccccc3C2)CC1)C[C@H]1CCCO1,-8,1.51
COc1ccc(CCNC(=O)c2c(C)c3c(n2Cc2cccc(C)c2)CCCC3)cc1OC,-1,0.07
Cc1ccc(N(Cc2ccco2)S(=O)(=O)N(C)CC2CC2)cc1,-20,1.68
Cc1nnc2sc(-c3ccc(CNC(=O)c4ccc(C(C)(C)C)cc4)cc3)nn12,-7,0.96

Structure (SMILES),% Inhibition [%],Z score
O=S(=O)(NC(=C(F)F)C(F)(F)F)c1ccccc1,-3,0.49
O=C(c1ccc(Oc2ccccc2)o1)N1CC[C@@H](CO)[C@@H](O)C1,3,-0.35
c1ccc(-n2nc(C3CC3)cc2-c2nnc(-c3ccccn3)o2)cc1,-10,1.65
O=C1CC[C@](CCC(=O)N(Cc2ccccc2)CC2CC2)(Cc2ccco2)N1,1,-0.17
CC(C)[C@@H]1CN(C)CCN1CCOC(C)(C)C,-23,2.47
Cc1ccnc(NCc2snnc2C(C)C)n1,-16,1.69
CCn1ncc(C(=O)N2CCc3ncc(C)cc32)c1Br,-1,0.1
CCc1nnc2c(S(=O)(=O)Nc3ccc(C(C)C)cc3)cccn12,32,-3.67
CCN(CC)S(=O)(=O)c1ccc(=O)n(CC(=O)NC(c2ccccc2)c2ccccc2)c1,-3,0.35
COCCOc1cc(=O)n2c(c1C(=O)N1CCN(c3ccccc3)CC1)CCOCC2,1,-0.05
COc1ccc(-n2cnc(=O)c(C#N)n2)cc1,-9,1.62
O=C(c1ccc[nH]1)N1CCC[C@H](Cn2cc(C3CCCC3)nn2)C1,-17,1.86
CCN(C)C(=O)NC[C@H]1COC2(CCCCCC2)O1,-12,1.87
c1ccc2c(c1)OC[C@H](Cn1ccnc1-c1c[nH]cn1)O2,-9,1.16
O=C(c1ccc(F)c(F)c1F)N1CCC(NCC2CC2)CC1,-2,0.29
O=C(CC1=CCCCC1)N1CC[C@@]2(CCCN(CC3CCCCC3)C2=O)C1,7,-0.93
Cc1nnnn1-c1ccc(C(=O)N2CCC(=O)N3CCC[C@@H]32)c(F)c1,7,-0.9
O=C(O)c1ccc2c(c1)[C@@H](CNCc1cncnc1)CCC2,-2,0.47
COc1cn(CC(=O)NCc2ccccc2Cl)c(CO)cc1=O,-1,0.17
O=C(NC1C(=O)c2ccccc2NC1c1ccco1)c1ccccc1 (stereo unspecified),-26,3.03
COc1c(F)c(F)cc(C(=O)N[C@H]2CCC23CCOCC3)c1F,6,-0.77

Structure (SMILES),% Inhibition [%],Z score
O=S(=O)(CCn1nnc2ccccc21)NCC1CCCCC1,13,-1.69
CCCc1csc(NC(=O)c2cc[nH]n2)n1,-4,0.41
CC(C)N1CCN(C(=O)c2cc3c(s2)CCN(C(=O)c2ccc(Cl)cc2)C3)CC1,-15,2.33
Cc1ccccc1C(=O)N1[C@H](C(=O)NCc2ccco2)COC12CCN(C(=O)c1ccccc1Cl)CC2,-2,0.3
COc1cc(-c2cc(-c3cccnc3)c3c(ccc4ccccc43)n2)cc(Cl)c1O,18,-2.48
CCc1nc([C@H](C)N2C(=O)N(C)C3(CCCCC3)C2=O)cs1,17,-2.2
Cc1ccc(CCC(=O)NCC(=O)N2CCC[C@@]2(CO)Cc2ccccc2)cc1,-7,1.05
Cc1ccc(CCCC(=O)NCC(=O)O)cc1,-3,0.41
O=C(c1cn(-c2ccc(F)cc2F)c(=O)c2ccccc12)N1CCN(Cc2ccc3c(c2)OCO3)CC1,-5,0.75
Cc1cc(C(=O)N(C)C(C)C2CN(Cc3ccccc3)CCO2)co1 (stereo unspecified),1,-0.08
Cc1nn(-c2ccccc2)c(N2CCC(C(=O)N[C@@H](C)c3ccccc3)CC2)c1-n1c(C)ccc1C,-5,0.65
C[C@H](O)c1cnc(CNc2cccc3c2CCN(CC(F)(F)F)C3)s1,-11,1.68
CC(C)OC1CC(NC[C@H](CCO)c2ccccc2)C1 (stereo partly specified),27,-3.49
Cc1cc(Cl)ccc1OCC(=O)N1C2CCC1CC(=O)NC2 (stereo unspecified),18,-2.27
CCS(=O)(=O)N1CCC[C@H](C(=O)Nc2nc(C(C)(C)C)co2)C1,-8,1.66
CCn1cc(C)c(C(=O)O)c1CC(=O)Nc1ccc(Cl)cn1,-13,2.35
COCCN1CCN(c2ccnc(C#N)c2)CC1=O,-10,1.65
CCOC(=O)C(NC(=O)C1CCS(=O)(=O)C1)C1CCCCCC1 (stereo unspecified),-8,1.07
Cc1cc(S(=O)(=O)N2CC[C@@H]3[C@@H](COCCN3Cc3ccccc3)C2)ccc1F,35,-3.95
CCCCN1C(=O)CC[C@@H]2CN(S(=O)(=O)N3CCOCC3)CC[C@@H]21,-12,1.2
COc1cc2c(cc1OC)[C@H](c1cccc(Cl)c1)N(C(=O)CCC1CCCC1)CC2,-4,0.59

Structure (SMILES),% Inhibition [%],Z score
CN(C)C(=O)CN(C)S(=O)(=O)[C@H]1CCCN(C(=O)c2cccc(Cl)c2)C1,-6,0.65
COCc1cccc(C(=O)NCC2(N3CCOCC3)CCCCCC2)n1,-9,0.92
CN(C(=O)COc1ccc2ccccc2c1)[C@@H](c1cccc(F)c1)c1ccccn1,-12,1.57
Cc1n[nH]c(C)c1[C@H](C)N(C)C(=O)c1ccc(NC(=O)C2CCC2)cc1,-7,0.91
Cc1ncsc1C(=O)NCC(=O)N(C)C,-1,0.19
CCc1nnc(Cn2ccc(-c3cccc(-c4ccc(OC)nn4)c3)n2)o1,-4,0.43
CCc1nsc(NCCCCc2ccnc(N)c2)n1,3,-0.53
CC(C)(C)CC(=O)N1C[C@@H]2Oc3ncccc3S(=O)(=O)N[C@@H]2C1,-8,1.25
CCc1nccn1CC(=O)N1CC[C@H](c2cccc(Cl)c2)C1,-23,2.16
FC(F)c1nnc(N2CCC(N3CCN(c4cccc(Cl)c4)CC3)CC2)o1,1,-0.12
CCCNc1cc(N2CCC(CCC(=O)N3CCN(c4cccc(C)c4)CC3)CC2)ncn1,-9,1.46
Cc1c[nH]c(C(=O)N2CCC[C@@]3(CCC(=O)N(CCc4c[nH]cn4)C3)C2)n1,-12,1.84
O=C(NC1CNCCC1c1ccc(F)cc1)c1ccc2nccnc2n1 (stereo unspecified),-7,0.96
O=C(NC1(c2cccs2)CCCC1)c1c(F)cccc1Cl,-4,0.75
O=C(CCCc1ccccc1)NOCC(=O)Nc1cc(F)ccc1F,-3,0.42
CCn1cc(CC(=O)Nc2c(OC)ncnc2N(C)C)cn1,7,-1.44
O=C(O)C1CC1C(=O)NCCC1Cc2ccccc2C1 (stereo unspecified),-15,2.03
COc1cccc(CN(C)C2CN(c3ccc4nncn4n3)C2)c1,-6,0.65
Cc1c(CO)[nH]c2ccc(-c3cccc([C@H](C)N4CCCC4)c3)cc12,2,-0.29
COCCN1C(=O)CC(CC(=O)N2C[C@@H](C)O[C@@H](C)C2)(c2ccccc2OC)C1=O (stereo partly specified),-14,2.06
